Laboratory results from PubChem BioAssay AID1240 (Sanford-Burnham Center for Chemical Genomics, 2008).
Screen size: about 50,000 compounds; about 800 (1.6%) showed an effect of 50% or more. The list shows a part of the results.

What follows are compounds tested against Bcl-2-like protein 10 (Homo sapiens) (UniProt Q9HD36) (assay: Phenotype converters, Bcl-B/TR3 peptide binding displacement, primary biochemical FP (AID 1240;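 note: 0% = Bcl-B with tracer peptide and DMSO and 100% = tracer peptide lacking Bcl-B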)). Conditions: GST-Bcl-B / FITC-TR3 peptide fluorescence polarization; stronger effect = higher value; compound at 3.75 mg/L.
UniProt Q9HD36, sequence (Q9HD36 whole entry, looked up): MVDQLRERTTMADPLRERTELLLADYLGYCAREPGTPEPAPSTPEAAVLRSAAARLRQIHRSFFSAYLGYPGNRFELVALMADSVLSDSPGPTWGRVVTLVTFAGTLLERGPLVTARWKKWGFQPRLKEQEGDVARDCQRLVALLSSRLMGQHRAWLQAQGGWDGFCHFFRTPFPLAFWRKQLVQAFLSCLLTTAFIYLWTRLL

| Structure (SMILES) | displacement [%] |
| --- | --- |
| Cc1cc(-n2cc(Br)c(=O)[nH]c2=O)nc(-c2ccccc2)n1 | -95.1 |
| CNc1c([N+](=O)[O-])cnc(N/C=C/C=C/C=C(C#N)C#N)c1C#N | -5.3 |
| COC(=O)C1=CNC=C(C(=O)OC)C1c1cc(C)ccc1C | 3.5 |
| CC1=C(C(=O)Nc2ccc(Br)cc2)C(c2ccccc2)NC(=O)N1C (stereo unspecified) | 5 |
| CC(N=CC1=C(O)CNC1=O)c1ccccc1 (stereo unspecified) | 5 |
| COC(=O)c1c(NC(=O)c2cccc([N+](=O)[O-])c2)sc(C)c1C | -8.5 |
| COc1cc(C2/C(=C(\O)c3ccccc3)C(=O)C(=O)N2c2ccccn2)ccc1O (stereo unspecified) | 3.3 |
| COc1ccc(Cl)cc1N=CC1=C(O)CC(C)(C)CC1=O | 3.1 |
| Cc1ccc(/C=C2N=C(/C=C/c3ccccc3)OC/2=O)s1 | 8.1 |
| O=C(O)CCCN1C(=O)C(=O)/C(=C(/O)c2ccccc2)C1c1cccc([N+](=O)[O-])c1 (stereo unspecified) | -5.1 |
| CC1=NN(C(=O)Cc2ccccc2)C(O)(c2cccnc2)C1 (stereo unspecified) | 12.6 |
| COc1cccc(-c2cc(C(=O)Nc3nc4ccccc4s3)c3ccccc3n2)c1 | -4 |
| COc1ccc(OC)c(NC(=O)C(=O)NNC(=O)c2cccs2)c1 | 1.4 |
| Cc1cc(=O)[nH]c(SC(C(=O)c2ccccc2)c2ccccc2)n1 (stereo unspecified) | 14 |
| COc1ccc(C)cc1NC(=O)C(=O)NNC(=O)c1ccc(C(C)(C)C)cc1 | -1.5 |
| CCCc1c(O)nc(SCCN(CC)CC)n(C(=O)c2ccccc2)c1=O | -4.8 |
| C=CCNC(=O)C(=O)Nc1cc(C)cc(C)c1 | 7.1 |
| CC1(C)CC(=O)C2=C(C1)Nc1ccccc1N1C(=O)c3ccccc3C21 (stereo unspecified) | -4.3 |
| Cc1c(C=O)cc2c(c1C)OC1(C=C2)N(C)c2ccccc2C1(C)C (stereo unspecified) | 14.2 |
| COc1ccc(O)c(-c2c(-c3ccc(Cl)cc3)n[nH]c2C)c1 | -7.9 |
| CN(C)c1ccc(/C=C2/SC(N3CCOCC3)=NC2=O)cc1 | 27.3 |
| COc1cc(/C=N/N=C2/SC(CC(=O)O)C(=O)N2c2ccc(O)cc2)ccc1O (stereo unspecified) | 8.7 |

| Structure (SMILES) | displacement [%] |
| --- | --- |
| CC(C)(C)c1csc(N/N=C/c2ccc(C#N)cc2)n1 | 7.1 |
| CC(=O)Nc1ccc(NC(=O)COc2ccc(Cl)cc2Br)cc1 | -10.8 |
| CC(C)(C)N(Cc1ccccc1)C(=O)CN1C(=O)/C(=C/c2ccccc2)SC1=S | -7.7 |
| CCSc1nnc2n(-c3ccc(OC)cc3)c(=O)c3c4c(sc3n12)COC(C)(C)C4 | -0.7 |
| Cc1ccc(S(=O)(=O)NC(C)c2ccc(-c3ccccc3)cc2)cc1[N+](=O)[O-] (stereo unspecified) | 14 |
| COC(=O)C1=C(C(=O)OC)SC(=C2C(=S)C(C)(C)N(C(=O)c3ccc4ccccc4c3)c3ccc(OC)cc32)S1 | -11.7 |
| O=C1c2ccccc2-c2onc3ccc(Sc4ccccc4)c1c23 | 17.9 |
| N#CC(=C1CCCCC1)c1nc(-c2ccc([N+](=O)[O-])cc2)cs1 | -6.6 |
| O=C(CSc1cccc2cccnc12)Nc1nc(-c2ccccc2)cs1 | -1.6 |
| C=CCOc1ccccc1/C=C1\N=C(c2ccc(C)cc2)OC1=O | -2.1 |
| CCOC(=O)C1CCN(CN2C(=O)C(=O)c3ccccc32)CC1 | -2.3 |
| COc1cc(/C=C2\C=C(c3ccc(Cl)cc3)OC2=O)cc(Br)c1OC | -9.5 |
| O=C1/C(=C\c2ccc(I)cc2)SC(=S)N1c1cccc(Cl)c1 | -1 |
| C=CCN1C(=O)/C(=C\c2cc(Cl)c(OCc3ccccc3Cl)c(OC)c2)SC1=S | 6.1 |
| CN1CCN(c2ccc([N+](=O)[O-])c(NC(c3ccccc3)c3ccccc3)c2)CC1 | 7.1 |
| COC(=O)c1ccc(/C=C2/C(=O)NC(=O)N(c3cccc(C)c3)C2=O)cc1 | -8.6 |
| O=c1[nH]c(=S)n(-c2ccc(Cl)c(Cl)c2)c(O)c1/C=C1/C=Nc2ccccc21 | -0.5 |
| COCCNC(=O)/C(=C/c1ccc(C(C)C)cc1)NC(=O)c1ccccc1 | 5.3 |
| COc1ccc(-c2nc3ccccc3nc2N2CCOCC2)cc1 | 6.7 |
| C=CCOc1ccc(/C=C2/C(=O)NC(=O)N(c3ccc(C)cc3)C2=O)cc1OCC | -2.8 |
| Cc1cccc(N2CCN(S(C)(=O)=O)CC2)c1C | -7.2 |
| O=C(/C=C/c1ccccc1Cl)NCC1CCCO1 (stereo unspecified) | 6.6 |

| Structure (SMILES) | displacement [%] |
| --- | --- |
| O=C(O)C(c1ccccc1)N1C(=O)/C(=C/C=C/c2ccccc2)SC1=S (stereo unspecified) | -0.6 |
| COc1ccc(C2CC(=O)C3=C(C2)Nc2ccccc2NC3c2cc3c(cc2[N+](=O)[O-])OCO3)cc1 (stereo unspecified) | 15.2 |
| CCCC(=O)NC(c1ccccc1Cl)c1ccc2cccnc2c1O (stereo unspecified) | -22.9 |
| COc1cc(CN2CCN(C(=O)c3ccc([N+](=O)[O-])cc3)CC2)cc(OC)c1OC | 2.3 |
| COc1cc(NC(=O)c2cccc(Cl)c2)cc(OC)c1 | 3.2 |
| O=C(c1ccco1)N1CCN(Cc2c[nH]c3ccccc23)CC1 | 3.4 |
| COc1ccc(-c2nc3ccccc3c(C(=O)Nc3ccc(C)cc3)c2C)cc1 | 11.2 |
| COC(=O)C1=C(C)N(C)C(=O)NC1c1ccc([N+](=O)[O-])s1 (stereo unspecified) | 10.8 |
| NC(=O)C1(c2ccccc2)CCCN1C(=O)c1ccco1 (stereo unspecified) | -2.5 |
| CCOc1ccc2c(c1)C(C)=CC(C)(C)N2S(=O)(=O)c1ccc(C)cc1 | -6 |
| O=C1NC(=O)N(c2cccc(Cl)c2)C(=O)/C1=C/c1ccc(Oc2ccc([N+](=O)[O-])cn2)cc1 | 14.5 |
| COc1c(Cl)cc(C(=O)Nc2cccc(-c3nc4ncccc4o3)c2)cc1Cl | 3.5 |
| COc1ccccc1CNC(=O)CN(c1cccc([N+](=O)[O-])c1)S(=O)(=O)c1ccccc1 | -0.6 |
| CCCCOc1ccc(NC(=O)c2cccc(OC)c2)cc1 | 15 |
| c1ccc(-n2ncc3c(N4CCN(C5CCCCC5)CC4)ncnc32)cc1 | 2.6 |
| COc1ccc(C(=O)OCCCN2C(=O)c3ccccc3C2=O)cc1 | 14.1 |
| COc1ccc(/C=C/C(=O)c2ccc(Cl)cc2)c(OC)c1 | 11 |
| O=C(O)CCCCCN1C(=O)C(=O)/C(=C(/O)c2ccc(F)cc2)C1c1ccc2c(c1)OCO2 (stereo unspecified) | -1.5 |
| Fc1ccc(NC(=S)Nc2ccccn2)cc1 | -5.3 |
| CCOc1ccc(C(=O)c2ccc(Cl)cc2)cc1OCC | 6.2 |
| CC(C)c1cc(C(C)C)c(S(N)(=O)=O)c(C(C)C)c1 | -2.5 |
| Cc1cc(C)c(C(=O)/C(=C/c2ccc(Br)cc2)c2ccccc2)c(=O)[nH]1 | 7.1 |

| Structure (SMILES) | displacement [%] |
| --- | --- |
| COc1cccc(C2/C(=C(\O)c3ccc(C)cc3)C(=O)C(=O)N2CCCC(=O)O)c1 (stereo unspecified) | 0.9 |
| O=C(OCCN1CCOCC1)c1ccc(F)cc1 | 1.4 |
| COc1ccc(-c2c(-c3ccc(Cl)cc3)nn(-c3ccccc3)c2N)cc1OC | 9.1 |
| CCCC(=O)Oc1cc2c(C(=O)OCC)c(C)n(C)c2c2ccccc12 | 12.2 |
| CN1C2=NC(=O)/C(=C/c3ccccc3[N+](=O)[O-])N2c2ccccc21 | -10.6 |
| CN(C)c1cccc(NC(=O)c2cccc3ccccc23)c1 | 0 |
| CCOC(=O)C1=C(C)N=C2SCC(=O)N2C1c1ccc(-c2cccc([N+](=O)[O-])c2)o1 (stereo unspecified) | 5.1 |
| O=C(N/N=C/c1ccco1)c1ccccc1 | 0.2 |
| Cc1ccc(NC(=O)c2cc3cc([N+](=O)[O-])ccc3oc2=O)c(C)c1 | -5.8 |
| Cc1cc(Cl)ccc1OCC(=O)NNC(=O)c1ccco1 | -0.3 |
| O=[N+]([O-])c1cccc(Cl)c1N1CCN(S(=O)(=O)c2ccc(Cl)cc2)CC1 | 11.7 |
| COc1ccc(N2C(=O)CC(N3CCSCC3)C2=O)cc1 (stereo unspecified) | 3.7 |
| CCOC(=O)C1=C(C)N=c2s/c(=C\c3ccc(NC(C)=O)cc3)c(=O)n2C1c1ccccc1 (stereo unspecified) | -24.8 |
| COc1ccccc1N(CC(=O)NCCc1ccccc1)S(=O)(=O)c1ccccc1 | 1.7 |
| Cc1ccccc1Cn1c(-c2nonc2N)nc2ccccc21 | 14.6 |
| Cc1ccc(N2C(=O)NC(=O)/C(=C\c3ccc(OCc4ccc(C(=O)O)cc4)cc3)C2=O)cc1 | -3.6 |
| CCC(C(=O)Nc1ccc(C)c(C)c1)c1ccccc1 (stereo unspecified) | 8.5 |
| COc1cc(/C=C2/C(=O)NC(=O)N(c3ccc(C(C)C)cc3)C2=O)cc(Cl)c1O | 17.1 |
| CCOc1cc(/C=C2\SC(=S)N(NC(=O)c3ccccc3Cl)C2=O)ccc1O | 1.5 |
| O=C(O)C(Cc1ccccc1)N1C(=O)/C(=C/c2ccc(O)cc2)SC1=S (stereo unspecified) | -23.7 |
| O=C(O)c1ccc2c(c1)C(=O)N(c1ccc(-c3nc4ccccc4s3)cc1)C2=O | -0.2 |
| COc1ccc(C(=O)N2CCN(Cc3ccccc3F)CC2)cc1OC | 56 |

| Structure (SMILES) | displacement [%] |
| --- | --- |
| O=C(NNS(=O)(=O)c1ccc2ccccc2c1)c1cccc(Cl)c1 | 4.8 |
| CCOC(=O)C(C)Oc1cc2oc(=O)c(CC)c(C)c2cc1CC (stereo unspecified) | -10.5 |
| O=C(CCC1CCCC1)Nc1c(F)c(F)c(F)c(F)c1F | -9.3 |
| Cc1ccc(-c2cc(NC(=O)COc3ccccc3)n[nH]2)cc1 | 11 |
| O=C(Nc1ccc(-c2nc3cc(Cl)ccc3o2)cc1)c1ccc(Br)o1 | -37.9 |
| CCSc1nc2sc3c(c2c2nnnn12)CCC3 | 12.7 |
| Cc1ccc(NC(=O)/C=C/c2ccccc2)cc1 | -3.5 |
| CCSc1nnc(NC(=O)CCC2CCCCC2)s1 | 2.4 |
| CC(C)=CCC/C(C)=C/CC(C)(C)C1OCCO1 | 0.2 |
| CC(C)(C)c1csc(N/N=C/c2ccccn2)n1 | -6.6 |
| CC1=NN(c2ccccc2)C(=O)/C1=C/c1c(O)n(C)c(=O)n(C)c1=O | 11.3 |
| O=C(Nc1ccc(Nc2ccccc2)cc1)c1cccc(Cl)c1 | 8.7 |
| COc1ccc(C2CC(=O)C3=C(C2)Nc2ccccc2NC3c2ccc(F)c(F)c2)cc1OC (stereo unspecified) | -5.1 |
| Cc1ccc(S(=O)(=O)NC(=O)NCCc2ccccc2)cc1 | 10.9 |
| CCc1nnc(NC(=O)CN2CCN(C(=O)c3ccccc3)CC2)s1 | 12.6 |
| CCN(CC)c1ccc(N=Cc2ccccc2OCc2ccccc2)cc1 | -8.5 |
| O=c1[nH]c2ccccc2c2nc3ccccn3c12 | -8.7 |
| O=S(=O)(Nc1ccc(O)c2ccccc12)c1cc(Cl)ccc1Cl | 15.9 |
